# PMC12136788
# This is one part of the list.
# T1: UNK ZnF1-3 (human, UniProt Q9C0B0 31-174)
# T1 sequence: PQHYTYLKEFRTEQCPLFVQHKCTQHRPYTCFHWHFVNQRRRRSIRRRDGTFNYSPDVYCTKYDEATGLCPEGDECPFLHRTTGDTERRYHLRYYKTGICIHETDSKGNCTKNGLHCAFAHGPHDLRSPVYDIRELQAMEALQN
# B1: chr2:157388187:157388188:+_ENSMUSG00000067786_ENSMUST00000109526|mus_mus|FALSE|FALSE (ssRNA)
# RNA: GGGAGUUCUACAGUCCGACGAUCUUUUGGUGGAGGUGGUCCCUGUCUCCAGGAGCUUACAAUCUAGCUGGGGAGACACUACUAAUGCACACUUAAACCAGUACAAUUAGCGACUACCACAAUAUUGACCACAACUGCUGCGUGCAACAGAGGAUUGAGCAUCA
# B2: chr1:121442827:121442828:-_ENSMUSG00000026383_ENSMUST00000052404|mus_mus|FALSE|FALSE (ssRNA)
# RNA: GGGAGUUCUACAGUCCGACGAUCAAACAACAAAUGAACAUGAUACCUGCCAAAUGAAAAGACAAGAAGCUUUCUUAGAAACUAUGUUCCCAGGUGUAGUGGCAUAGCCUUUAAUGAAGCACUCAGGAGGCAGAGGCAGGAGGACAACAGAGGAUUGAGCAUCA
# B3: chr4:184596322:184596323:+_ENSG00000168538_ENST00000334690|hu_hu|FALSE|FALSE (ssRNA)
# RNA: GGGAGUUCUACAGUCCGACGAUCCGCAUUUUGUGUAUCUUGUUUCAACUCACUGAAGAAAGCUAUUUUGAACUGAUGCCUAACAAAUAAAAGCUGGUGUGUUGUUUUAUUCAAAAAUUCUUUAUGAGAUUUCACUCUUCUGAUCAACAGAGGAUUGAGCAUCA
# B4: chr7:65705844:65705845:+_ENSG00000169902_ENST00000304842|hu_mus|hu_hu_hu_mus_False|58_78 (ssRNA)
# RNA: GGGAGUUCUACAGUCCGACGAUCAAACGGAUCUUUGUUACAUAAAUAAGGUGCCGGCUCCCCAUGCUUAACAAUGAUUUCUAGUAAGAAGGCUUGCAUGGCAGAAUCUAGCACUUCAUCUGUGACACCCGCCUCAUCCAAGCGCAACAGAGGAUUGAGCAUCA
# B5: chr4:40680873:40680874:+_ENSMUSG00000028410_ENSMUST00000030118|mus_mus|motif|central (ssRNA)
# RNA: GGGAGUUCUACAGUCCGACGAUCAUUCUGAUAUCCAGAUUUAAGCAUGUAAGCAUGUGACUUCAAAACAUACAACAAAUCGGUUCAUAAUUUGCUAUACUACCAACAUUAAAUUGCAGUUACGUUGGAGCCUAAGUCGAAUAGCAACAGAGGAUUGAGCAUCA
# B6: chr12:36845622:36845623:-_ENSMUSG00000020547_ENSMUST00000020856|mus_hu|FALSE|FALSE (ssRNA)
# RNA: GGGAGUUCUACAGUCCGACGAUCUGCCAUCCAUGCUUUGAAAAGCUUGACAGCAAAUGAGGCCGCAAUGCCUUCUUUGACUAAGCUGUCGGUGAAGAGACUGGUGAGGAUGGUGGCGGGCAGGGUGCCAUUGCCCAGCAGAAUCAACAGAGGAUUGAGCAUCA
# B7: 144403379_144403499_1112_CDS_ENSG00000184428_ENST00000329245|human|control|control (ssRNA)
# RNA: GGGAGUUCUACAGUCCGACGAUCCACCGGCACUCUGUUGUAGUAGCGGAUGCAGUCCUUCCCCAGGAAGUCAAAUUCCACCACGUGUUGGCAGCCAUCGGCCUCCGGGUGCAGCUGGACGUGCUCCACGCGGAGGGAACAGCACAACAGAGGAUUGAGCAUCA
# B8: chr6:75947695:75947696:-_ENSG00000112695_ENST00000509698|hu_hu|FALSE|FALSE (ssRNA)
# RNA: GGGAGUUCUACAGUCCGACGAUCCUGAAGUCACUCCUGCUUCUUGGGAAAUGAAGCCACAGCCAGCUCAUAUAUGGCAUAUGCUGUUCCUUCAAACAUUCCAAAGGCCUUACCACCAACUGUAAGAAUCAUGGUGGCUCUAUACAACAGAGGAUUGAGCAUCA
# B9: 112583360_112588910_3410_CDS_ENSG00000153107_ENST00000341068|human|control|control (ssRNA)
# RNA: GGGAGUUCUACAGUCCGACGAUCUAUUCUGGUUAAAUACUGUGAGGAUUCAUCAGAAACCAAGCUCUCAUCACCAAGUAUGUACAGUGCAAUACUCAAGACUACAAGUCUGCUUCUUUCACAGAUUCCAGGGAGGUAAGGAUACAACAGAGGAUUGAGCAUCA
# B10: 31034375_31034495_2417_3pUTR_ENSG00000197183_ENST00000359676|human|control|control (ssRNA)
# RNA: GGGAGUUCUACAGUCCGACGAUCACCGGCUGCCAUCUCCCAGCAGUCCGUCCUGUCAAGCAGCUGAGGGCCAGAGCUGGAGGGCUGCAGUGGCUGGUUAGGGACAGGACGCUCUCUGGGUUCCAGCUCCUGGACACCCAGUCUCAACAGAGGAUUGAGCAUCA
# B11: chr1:109605286:109605287:-_ENSG00000197780_ENST00000461096|hu_mus|hu_hu_hu_mus_True|58_78 (ssRNA)
# RNA: GGGAGUUCUACAGUCCGACGAUCAAGUUUCAGAGUAACAUUCAGUAACCUCUUUAACAAUUGUAAUCCUUAUUAUAAACUAAGGGCAAUAAUAAUUUAAUACCGUAAGUGAACUACACACAAAGCCUGAACCGCGAAAAUGGUCAACAGAGGAUUGAGCAUCA
# B12: chr6:17872010:17872011:+_ENSMUSG00000029534_ENSMUST00000127322|mus_mus|FALSE|FALSE (ssRNA)
# RNA: GGGAGUUCUACAGUCCGACGAUCUCACUGUCUCCUCUCUUCAGGAUGUGUUCUGGUGGGAGGAUUAAGCUUUUCAUUUCUAGUAGAUAUUUUGGCACGUGUGGAUUAAAUUCCACAGCUCUGUGGAUGGCUUCUACUGCAUUCCAACAGAGGAUUGAGCAUCA
# B13: chr1:90059312:90059313:+_ENSG00000197147_ENST00000439853|hu_hu|FALSE|FALSE (ssRNA)
# RNA: GGGAGUUCUACAGUCCGACGAUCCAAAGACAGUCGUGAGUAUACAUCAAGAAAAUUCAUAUUGAUGAGUUUAUGGUCUUGGUGAUAAAUAUCAAAACAGGAAGUCAGUUAAAACAAGUGUGCAAAUAAGUAAUGGGGACUGGGCAACAGAGGAUUGAGCAUCA
# B14: 88684888_88685008_3608_3pUTR_ENSG00000107779_ENST00000372037|human|control|control (ssRNA)
# RNA: GGGAGUUCUACAGUCCGACGAUCUAUUUAAAAAGCAUUAAAGAAGUAUAAGUUUAUGUAAAUCAGAUUUCUUGAGAUAACAAGGCAUCUAUAAAAUAUGAACCAUUUUAUUGAAGAACAGUUAUACAGUGUAGCUACAGAUACCAACAGAGGAUUGAGCAUCA
# Biological target: T1, UNK ZnF1-3
# Assay: nsRBNS (natural sequence RNA bind-n-seq); RBNS binding buffer (assumed for nsRBNS): 25 mM Tris pH 7.5, 150 mM KCl, 3 mM MgCl2, 0.01% Triton X-100, 500 ug/ml BSA, 20 U/ml SUPERase-In, 4 C; UNK is unkempt and MSI1 is Musashi-1; names of the RNAs are library labels; protein concentration not given here; high values mean tight binding
row,Binder,binding signal [enrichment R]
1,B1,1.2
2,B2,1.12
3,B3,1.11
4,B4,0.445
5,B5,0.477
6,B6,1.01
7,B7,0.759
8,B8,0.807
9,B9,1.34
10,B10,0.77
11,B11,1.25
12,B12,0.581
13,B13,2.3
14,B14,1.96
